# Reference: PubChem BioAssay AID1345083 (National Center for Advancing Translational Sciences (NCATS), 2018)
# Where “and” joins values, the source holds several entries; their conditions need not be identical. Equal entries are not always repeated. Screen size: about 94,000 compounds; about 6,200 (6.6%) were called active. The shares of active, inactive and inconclusive entries below differ from those in the screen. The call rests on the fitted dose curve; in most records, active means well fitted inhibition curve with a large enough effect; inconclusive means small, poorly fitted or top-dose-only effect; inactive means flat fitted curve, though single readings scatter. Potencies of inconclusive entries are doubtful fits and often do not repeat.
# Assay: Cytotoxic Profiling in HEK 293 Cell Line of Diverse Libraries Using Quantitative High-Throughput Screening; further: nearly all actives have a fitted effect of over 60% in size
# Conditions: HEK 293 viability, ATP luminescence (CellTiter-Glo), 48-72 h; series mostly up to 115 µM
# Summary of the method: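 Luminescence from cellular ATP, measured with CellTiter-Glo, indicates HEK 293 viability. Cells plated at 250 cells/well are treated with compound for 48 or 72 hr at 37 degree Celsius before reagent addition.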
# Potency means the concentration at half of the fitted maximal effect; tags describe the fitted curve by direction and shape.
row,SMILES,Potency
1,O=C(C[C@@H]1CCNC[C@@H]1Cc1cc(-c2ccccc2)on1)N1CCC(Cc2ccccc2)CC1,"inconclusive: 50.1 µM [inhibitor, partial curve, poor fit]"
2,Cc1cc(=O)n(CC(=O)Nc2cccc(F)c2)c(N2CCc3ccccc3C2)n1,"inconclusive: 79.4 µM [inhibitor, partial curve, poor fit]"
3,CS(=O)(=O)N1CCC(OC2CCN(C(=O)Nc3c(F)cccc3F)CC2)CC1,inactive
4,Cc1ccc(-c2nnc(C3CN(C(=O)c4ccc(C)nc4)CC34CCOCC4)o2)cc1 (configuration not stated),inactive
5,O=C(CN1C(=O)NC2(CCS(=O)(=O)CC2)C1=O)NC1CCCCC1,inactive
6,CN(C(=O)[C@@H]1C[C@H](c2cccc(C(F)(F)F)c2)N(Cc2cnn(C)c2)C1)c1ccccc1,"inconclusive: 56.2 µM [inhibitor, partial curve, poor fit]"
7,COc1ccc(-c2ccc3ccccc3n2)c(OC)c1OC,"inconclusive: 56.2 µM [inhibitor, partial curve, poor fit]"
8,O=C(c1cccnc1)N1CCC2(CC1)CC(CCOc1ccncc1)CCO2 (configuration not stated),"inconclusive: 10 µM [inhibitor, full curve, poor fit]"
9,CN(Cc1ccc(F)cc1)Cc1ccccc1C(F)(F)F,inactive
10,O=C(NCC1(O)CCCCC1)C1CCN(c2nc(-c3ccccc3)nc3c2CCC3)CC1,"inconclusive: 17.8 µM [inhibitor, full curve, poor fit]"
11,O=C(NCc1cccc(C(F)(F)F)c1)C1CN(C2CCCC2)C(=O)N1 (configuration not stated),"inconclusive: 100 µM [inhibitor, partial curve]"
12,Cn1cccc1C(=O)N[C@H]1C[C@@H](C(=O)O)N(C(=O)CCCC(=O)N2C[C@@H](NC(=O)c3cccs3)C[C@H]2C(=O)O)C1,inactive
13,COc1cccc([S+](=O)([O-])N2CCC3(CC2)C(=O)Nc2ccccc23)c1,"inconclusive: 39.8 µM [inhibitor, partial curve, poor fit]"
14,O=C(N1CCC(n2cc(-c3nc(-c4ccccc4)no3)nn2)CC1)C1(c2ccccc2)CC1,active: 31.6 µM
15,CSc1ccc(-c2cccc(C(=O)NCCNC(=O)C3CC3)c2)cc1,"inconclusive: 39.8 µM [inhibitor, partial curve, poor fit]"
16,CC(=O)N1CC2(CCN(C(=O)c3ccc(Cl)cc3)CC2)Cc2ccccc21,"inconclusive: 56.2 µM [inhibitor, partial curve, poor fit]"
17,COc1cccc(CC(=O)N2CCC(Cc3nc(-c4ccncc4)n[nH]3)C2)c1 (configuration not stated),active: 12.6 µM
18,O=C([C@@H]1Cc2nc[nH]c2CN1Cc1ccc(Cl)cc1)N1CCC(Cc2ccccc2)CC1,"inconclusive: 50.1 µM [inhibitor, partial curve, poor fit]"
19,Cc1cc(C)c(CNC(=O)c2cc(-c3cccc4[nH]ccc34)cc3ncn(C)c23)c(=O)[nH]1,"inconclusive: 70.8 µM [inhibitor, partial curve, poor fit]"
20,Cc1cccc(CNC(=O)C2CCCN(c3cnc4nc(C)c(C)nc4c3)C2)c1 (configuration not stated),inactive
21,O=C(NCc1ccc(F)cc1)c1nc(-c2cccnc2)c2ccccn12,"inconclusive: 100 µM [inhibitor, partial curve, poor fit]"

row,SMILES,Potency
1,CN1Cc2nc(-c3cnn(Cc4ccccc4)c3)ccc2OCC1=O,"inconclusive: 112 µM [inhibitor, single point]"
2,CC1=C[C@@H](CNC(=O)COc2ccccc2)[C@H](C(C)C)C[C@H]1CC(=O)Nc1ccccn1,"inconclusive: 50.1 µM [inhibitor, partial curve, poor fit]"
3,Fc1ccc(CN2CCC(Cc3nc(-c4cccnc4)n[nH]3)C2)cc1F (configuration not stated),"inconclusive: 56.2 µM [inhibitor, partial curve, poor fit]"
4,CN(Cc1ccc(F)cc1)S(=O)(=O)c1cccc(C(F)(F)F)c1,"inconclusive: 79.4 µM [inhibitor, partial curve, poor fit]"
5,COc1ccc(CN2C[C@@H](CO)[C@H](NC(C)=O)C2)cc1Br,inactive
6,O=C(c1cc(-c2cccc(C(F)(F)F)c2)c2nncn2n1)N1CCC(c2ccccc2)CC1,active: 25.1 µM
7,O=C(Nc1ccon1)c1cnc2n[nH]c(-c3ccccc3)c2n1,"inconclusive: 31.6 µM [inhibitor, full curve]"
8,O=C(c1ccc2nc[nH]c2c1)N1CCC(Oc2ccccc2-c2nc(C3CC3)no2)C1 (configuration not stated),"inconclusive: 89.1 µM [inhibitor, single point]"
9,CC1CCN(C(=O)c2cc(CN3CCC(Cc4ccccc4)CC3)on2)CC1,"inconclusive: 50.1 µM [inhibitor, partial curve, poor fit]"
10,Cc1ccccc1OCc1nc(C2CN(C(=O)c3cc4ccccc4[nH]3)C2)no1,"inconclusive: 89.1 µM [inhibitor, partial curve, poor fit]"
11,COc1ccc(-c2cc(-c3c(C)noc3C)c3cncn3c2)cn1,"inconclusive: 79.4 µM [inhibitor, partial curve]"
12,O=C(NCCc1ccccc1)C1CCCN(C2CCN(Cc3nccs3)CC2)C1 (configuration not stated),inactive
13,O=c1[nH]c(C2CCN(Cc3cccc(-c4cccs4)c3)CC2)nc2ccc(F)cc12,"inconclusive: 56.2 µM [inhibitor, partial curve, poor fit] and active: 22.4 µM"
14,Cc1ccc(Nc2ccnc(N3CCCC(C(=O)NCC4CC4)C3)n2)cc1 (configuration not stated),active: 35.5 µM
15,CCCS(=O)(=O)N1Cc2c(ncn2Cc2ccc(Cl)cc2)C[C@H]1C(=O)OC,inactive
16,O=C(Nc1cccc(C(F)(F)F)c1)N1CCCC(Cn2cnc3cccnc32)C1 (configuration not stated),"inconclusive: 50.1 µM [inhibitor, partial curve, poor fit]"
17,N[C@@H]1CCN(Cc2cccc(Oc3ccc(F)cc3)c2)C[C@H]1O,active: 79.4 µM
18,Cc1nnc2ccc(N3CCCN([S+](=O)([O-])c4cccs4)CC3)nn12,"inconclusive: 79.4 µM [inhibitor, partial curve, poor fit]"
19,COc1ccccc1C(=O)NC1CCN(CCn2nc3n(c2=O)CCCC3)C1 (configuration not stated),inactive
20,Cc1ccc([S+](=O)([O-])N2CCC(C(=O)N3CCC(c4nc5ncccc5[nH]4)CC3)C2)cc1 (configuration not stated),inactive
21,O=C(NCc1ccccc1)c1ccccc1OC1CN(Cc2ccc(F)c(F)c2)C1,"inconclusive: 44.7 µM [inhibitor, partial curve, poor fit]"

row,SMILES,Potency
1,COc1cccc(CN2CCOC3(CCN([S+](=O)([O-])c4ccccc4C)CC3)C2=O)c1,"inconclusive: 56.2 µM [inhibitor, partial curve, poor fit]"
2,COc1cccc(CCC(=O)NC2CCN(c3cc(-c4ccccc4)[nH]n3)CC2)c1,"inconclusive: 50.1 µM [inhibitor, partial curve, poor fit]"
3,CCc1nc2c(c(-c3ccc(Cl)cc3)n1)CCN(Cc1ccc(C(F)(F)F)cc1)CC2,active: 50.1 µM
4,CCc1ccc(NC(=O)Cn2c(N(C)Cc3ccccc3)nc(C)cc2=O)cc1,active: 35.5 µM
5,Cc1nn(-c2ccccc2)c2c1C(C)N(C1CN(C(=O)Cc3cccc(Cl)c3)C1)C2=O (configuration not stated),"inconclusive: 50.1 µM [inhibitor, partial curve, poor fit]"
6,C1CCC2(CC1)C(OCC1CC1)CN2C1CCNCC1 (configuration not stated),"inconclusive: 56.2 µM [inhibitor, partial curve, poor fit]"
7,Cc1nnc2ccc(N3CCC(N[S+](=O)([O-])c4cccs4)CC3)nn12,inactive
8,O=C(C1CC1)N1CCC2(CC1)Cc1ccccc1NC2=O,inactive
9,COCc1ccc2c(c1)c(OC(C)(C)C(=O)NCCc1ccccn1)nn2CCC(C)C,"inconclusive: 100 µM [inhibitor, partial curve]"
10,CS(=O)(=O)N(C1CC1)C1CCOC2(CCN(C(=O)COc3ccccc3)CC2)C1 (configuration not stated),inactive
11,O=C(NCc1ccoc1)c1ccc2nc(-c3ccc(F)cc3)cn2c1,"inconclusive: 70.8 µM [inhibitor, partial curve]"
12,CCOC(=O)C1CCN(C(=O)c2cn3cc(-c4cccnc4)sc3n2)CC1,"inconclusive: 89.1 µM [inhibitor, single point]"
13,Cc1ccc(NC(=O)N2CCC3(CC2)SCC(=O)N3Cc2ccco2)cc1Cl,"inconclusive: 50.1 µM [inhibitor, partial curve, poor fit]"
14,O=C(NCCc1cccs1)c1cc2n(n1)CC(c1ccc(Cl)cc1)OC2 (configuration not stated),"inconclusive: 79.4 µM [inhibitor, partial curve, poor fit]"
15,COc1ccc(-c2cccc(C(=O)N3CCC(NC(=O)c4ccccc4Cl)CC3)c2)nn1,"inconclusive: 50.1 µM [inhibitor, partial curve, poor fit]"
16,CC(=O)N1CCCC1c1nc(C2CN(Cc3cc(F)c(F)cc3F)C2)no1 (configuration not stated),"inconclusive: 89.1 µM [inhibitor, partial curve, poor fit]"
17,O=C1CC(c2ccccc2)N(C(=O)CNC(=O)c2ccc3ccccc3n2)CCCCCCN1 (configuration not stated),inactive
18,CN(C)c1ccc(-c2ccnc(N[C@H]3CO[C@H]4[C@@H]3OC[C@H]4OC(=O)NCc3ccccc3)n2)cc1,"inconclusive: 56.2 µM [inhibitor, partial curve, poor fit]"
19,COc1ccc(NC(=O)Nc2cccn3nc(C(C)C)nc23)cc1,"inconclusive: 79.4 µM [inhibitor, partial curve, poor fit]"
20,COc1cc(CNC(=O)c2cnc3c(c2)N(C(=O)Cc2ccccc2OC)CCC3)cc(OC)c1,"inconclusive: 89.1 µM [inhibitor, partial curve, poor fit]"
